# The list shows a part of the results. Sequences were assembled here from the parent chain. Inactive controls read about 0.05.
# B1: TEV protease; numbered along this chain (parent)
# chain: MGESLFKGPRDYNPISSSICHLTNESDGHTTSLYGIGFGPFIITNKHLFRRNNGTLVVQSLHGVFKVKDTTTLQQHLVDGRDMIIIRMPKDFPPFPQKLKFREPQREERICLVTTNFQTKSMSSMVSDTSCTFPSGDGIFWKHWIQTKDGQCGSPLVSTRDGFIVGIHSASNFTNTNNYFTSVPKNFMELLTNQEAQQWVSGWRLNADSVLWGGHKVFMVKPEEPFQPVKEATQL
# Variants of: B1
# Test: raw area under fraction-flipped curve 0-4 h after induction (AUC4h, not background-subtracted), DNA-recorder readout of cleavage of the substrate (dimensionless); higher = more cleavage of the substrate by the protease variant
# Conditions: temperature: 34 °C; time window: 0-4 h after rhamnose induction
# Method: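 In vivo DNA recorder in E. coli TOP10(DE3) ΔrhaA at 34 °C. Each TEVp single-site mutant (parent TEVp 0) is paired with a single-site variant of the 7-mer TEVs (canonical ENLYFQ|S). The substrate sits between flexible linkers in a Bxb1-sfGFP-TEVs-SsrA fusion, so cleavage stabilises Bxb1 and speeds flipping of a recombination array, read by NGS. The value is the raw area under the fraction-flipped curve over 0-4 h after rhamnose induction (AUC4h), with ≥20 reads per time point. It is not background-subtracted; inactive controls average about 0.047.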
# 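Note: Bxb1 expression induced with 0.2% (w/v) L-rhamnose at OD600 near 0.5, cultures sampled hourly, flipped fraction per protease–substrate barcode pair counted by paired-end Illumina sequencing.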
Variant,area with substrate ENLYFAS,area with substrate ENLYFCS,area with substrate ENLYFDS,area with substrate ENLYFES,area with substrate ENLYFFS,area with substrate ENLYFIS,area with substrate ENLYFMS,area with substrate ENLYFNS,area with substrate ENLYFPS,area with substrate ENLYFRS,area with substrate ENLYFTS,area with substrate ENLYFVS,area with substrate ENLYFYS,area with substrate ENLYFKS,area with substrate ENLYFWS,area with substrate ENLYFGS,area with substrate ENLYFLS,area with substrate ENLYFSS,area with substrate ENLYFHS
MGESLFKGPRDYNPISSSICHLTNESDGHTTSLGGIGFGPFIITNKHLFRRNNGTLVVQSLHGVFKVKDTTTLQQHLVDGRDMIIIRMPKDFPPFPQKLKFREPQREERICLVTTNFQTKSMSSMVSDTSCTFPSGDGIFWKHWIQTKDGQCGSPLVSTRDGFIVGIHSASNFTNTNNYFTSVPKNFMELLTNQEAQQWVSGWRLNADSVLWGGHKVFMVKPEEPFQPVKEATQL [Y34G],0.0479,0.0995,0.0526,0.0624,0.0394,0.0799,0.0515,0.0675,0.0523,0.0489,0.0647,0.031,0.062,–,–,–,–,–,–
MGESLFKGPRDYNPISSSICHLTNESDGHTTSLIGIGFGPFIITNKHLFRRNNGTLVVQSLHGVFKVKDTTTLQQHLVDGRDMIIIRMPKDFPPFPQKLKFREPQREERICLVTTNFQTKSMSSMVSDTSCTFPSGDGIFWKHWIQTKDGQCGSPLVSTRDGFIVGIHSASNFTNTNNYFTSVPKNFMELLTNQEAQQWVSGWRLNADSVLWGGHKVFMVKPEEPFQPVKEATQL [Y34I],0.0525,–,–,0.0653,–,0.0576,0.0632,–,0.0646,0.0713,–,0.0626,–,0.0643,0.0472,–,–,–,–
MGESLFKGPRDYNPISSSICHTTNESDGHTTSLYGIGFGPFIITNKHLFRRNNGTLVVQSLHGVFKVKDTTTLQQHLVDGRDMIIIRMPKDFPPFPQKLKFREPQREERICLVTTNFQTKSMSSMVSDTSCTFPSGDGIFWKHWIQTKDGQCGSPLVSTRDGFIVGIHSASNFTNTNNYFTSVPKNFMELLTNQEAQQWVSGWRLNADSVLWGGHKVFMVKPEEPFQPVKEATQL [L22T],0.0511,0.0418,0.0396,0.0447,0.0576,0.0434,0.0444,0.046,0.0473,0.0614,–,–,0.0416,–,0.0386,0.0466,0.0542,0.0517,–
MGESLFKGPRDYNPISSSICHLTNESDPHTTSLYGIGFGPFIITNKHLFRRNNGTLVVQSLHGVFKVKDTTTLQQHLVDGRDMIIIRMPKDFPPFPQKLKFREPQREERICLVTTNFQTKSMSSMVSDTSCTFPSGDGIFWKHWIQTKDGQCGSPLVSTRDGFIVGIHSASNFTNTNNYFTSVPKNFMELLTNQEAQQWVSGWRLNADSVLWGGHKVFMVKPEEPFQPVKEATQL [G28P],0.0559,0.0565,–,0.0653,0.064,0.0608,–,–,0.069,–,0.0406,0.0526,0.0438,0.0688,–,–,0.0545,–,0.0705
MGESLFKGPRDYNPISSSICHLTNESDWHTTSLYGIGFGPFIITNKHLFRRNNGTLVVQSLHGVFKVKDTTTLQQHLVDGRDMIIIRMPKDFPPFPQKLKFREPQREERICLVTTNFQTKSMSSMVSDTSCTFPSGDGIFWKHWIQTKDGQCGSPLVSTRDGFIVGIHSASNFTNTNNYFTSVPKNFMELLTNQEAQQWVSGWRLNADSVLWGGHKVFMVKPEEPFQPVKEATQL [G28W],0.0602,0.0476,0.0623,0.0514,0.0609,0.0516,0.0583,0.054,0.0677,0.0662,0.0641,0.054,–,0.0578,–,–,0.038,0.0539,0.0577
MGESLFKGPRDYNPISSSICHLTNESDRHTTSLYGIGFGPFIITNKHLFRRNNGTLVVQSLHGVFKVKDTTTLQQHLVDGRDMIIIRMPKDFPPFPQKLKFREPQREERICLVTTNFQTKSMSSMVSDTSCTFPSGDGIFWKHWIQTKDGQCGSPLVSTRDGFIVGIHSASNFTNTNNYFTSVPKNFMELLTNQEAQQWVSGWRLNADSVLWGGHKVFMVKPEEPFQPVKEATQL [G28R],0.0551,0.0625,0.0583,0.0746,0.0829,0.0476,0.0514,–,0.0532,–,0.0785,0.0522,–,0.0588,0.0476,–,0.0612,0.0598,–
MGESLFKGPRDYNPISSSICHLTNESDEHTTSLYGIGFGPFIITNKHLFRRNNGTLVVQSLHGVFKVKDTTTLQQHLVDGRDMIIIRMPKDFPPFPQKLKFREPQREERICLVTTNFQTKSMSSMVSDTSCTFPSGDGIFWKHWIQTKDGQCGSPLVSTRDGFIVGIHSASNFTNTNNYFTSVPKNFMELLTNQEAQQWVSGWRLNADSVLWGGHKVFMVKPEEPFQPVKEATQL [G28E],0.0583,0.0371,0.0355,0.0577,0.0704,0.0634,0.0692,0.0653,0.0611,–,0.0505,0.0527,0.0355,–,–,–,–,–,–
MGESLFKGPRDYNPISSSICHLTNESDAHTTSLYGIGFGPFIITNKHLFRRNNGTLVVQSLHGVFKVKDTTTLQQHLVDGRDMIIIRMPKDFPPFPQKLKFREPQREERICLVTTNFQTKSMSSMVSDTSCTFPSGDGIFWKHWIQTKDGQCGSPLVSTRDGFIVGIHSASNFTNTNNYFTSVPKNFMELLTNQEAQQWVSGWRLNADSVLWGGHKVFMVKPEEPFQPVKEATQL [G28A],0.0707,–,0.0562,0.0499,–,–,0.0618,0.0642,0.0564,0.0534,0.049,0.017,0.0585,–,0.0347,0.0654,–,–,0.0561
MGESLFKGPRDYNPISSSICHLTNQSDGHTTSLYGIGFGPFIITNKHLFRRNNGTLVVQSLHGVFKVKDTTTLQQHLVDGRDMIIIRMPKDFPPFPQKLKFREPQREERICLVTTNFQTKSMSSMVSDTSCTFPSGDGIFWKHWIQTKDGQCGSPLVSTRDGFIVGIHSASNFTNTNNYFTSVPKNFMELLTNQEAQQWVSGWRLNADSVLWGGHKVFMVKPEEPFQPVKEATQL [E25Q],0.0597,0.0616,–,0.0558,0.0803,0.0624,0.0601,0.0616,0.0525,0.0599,0.0591,0.0617,0.0629,0.0604,–,–,0.0577,0.0483,0.0576
MGESLFKGPRDYNPISSSICHLTNTSDGHTTSLYGIGFGPFIITNKHLFRRNNGTLVVQSLHGVFKVKDTTTLQQHLVDGRDMIIIRMPKDFPPFPQKLKFREPQREERICLVTTNFQTKSMSSMVSDTSCTFPSGDGIFWKHWIQTKDGQCGSPLVSTRDGFIVGIHSASNFTNTNNYFTSVPKNFMELLTNQEAQQWVSGWRLNADSVLWGGHKVFMVKPEEPFQPVKEATQL [E25T],0.0676,0.0461,0.0563,0.0477,–,0.0546,0.0712,0.0644,0.0593,–,–,–,–,0.0616,0.0588,–,–,0.0777,–
